Results reported in PubChem BioAssay (Tox21).
Values joined by “and” are separate entries in the source; they are usually repeats but may differ in a detail not shown here. Identical values can stand only once. The inconclusive results got no clear call from the source; some entries with a clear call stand among them for comparison. For part of these data: No potency is given beside an inconclusive call; the fits are too rough. Some compounds were tested as several samples or in several runs, with calls that do not always agree. Active and inactive are the calls of the source. Unless noted, the call rests on the fitted dose curve; in most records, active means well fitted curve in the direction sought with a large enough effect in the repeat runs; inconclusive means weak or mixed curves; inactive means no such curve, though single readings can be large; an effect the other way counts as inactive or inconclusive.

How the values were obtained:
[1] = molecular target: Aromatase (Homo sapiens) (UniProt P11511); test: qHTS assay to identify aromatase inhibitors (AID 743083); further: on the % scale 0 is the no-effect control and ±100 the full control effect; nearly all actives have a fitted effect of over 55% in size
[2] = qHTS assay to identify small molecule antagonists of the estrogen related receptor (ERR) signaling pathway from Tox21 library (AID 1224848); further: on the % scale 0 is the no-effect control and ±100 the full control effect; nearly all actives have a fitted effect of over 50% in size
Procedure, shortened: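 ERR cell line, 2,000 cells/well. 6 h settle, then compound (DMSO) added; 18 h at 37 C; ONE-Glo luminescence after 30 min RT.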

[3] = system: thyroid hormone receptor (rat, GH3 cells); test: qHTS assay to identify small molecule agonists of the thyroid receptor (TR) signaling pathway (AID 743066; calls by dose curve; further: potency means the concentration at half of the fitted maximal effect; on activation: on the % scale 0 is the no-effect control and ±100 the full control effect); conditions: GH3.TRE-Luc cells, TR agonist luciferase, 24 h; activation: at 83.9 µM (top of the series) unless noted
[4] = qHTS assay to identify small molecule agonists or antagonists of the thyroid stimulating hormone receptor (TSHR) signaling pathway - wild type cell line counter screen (AID 1259384; calls by dose curve; further: potency means the concentration at half of the fitted maximal effect; on cAMP activity change: on the % scale 0 is the no-effect control and ±100 the full control effect); conditions: HEK293 wild type, cAMP HTRF counter-screen; for cAMP activity change: at 92.4 µM (top of the series), active compounds read high
Procedure, shortened: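 Counter screen in untransfected Hek293: compounds (15-point titration, triplicate) plus phosphodiesterase inhibitor Ro20-1724 added after 18 h plating; 30 min RT. Intracellular cAMP via competitive d2/cryptate immunoassay, 1 h incubation.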

[5] = qHTS RealTime-Glo MT Cell Viability Assay in HEK293 cells - 0 hour (AID 1224880); further: nearly all actives have a fitted effect of over 45% in size; further: potency means the concentration at half of the fitted maximal effect
Procedure, shortened: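 Measured as luminescence from the same continuously cultured HEK293 wells at successive time points (0, 8, 16, 24, 32, 40 h) after compound addition. Reagent present from seeding; dosing at 5 h; incubation 37 C.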

[6] = qHTS RealTime-Glo MT Cell Viability Assay in HepG2 cells - 40 hour (AID 1224870); further: nearly all actives have a fitted effect of over 50% in size; further: potency means the concentration at half of the fitted maximal effect
Procedure, shortened: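 Real-time viability: cells seeded at 600 per well together with NanoLuc and cell-permeant prosubstrate, compounds added after 5 h incubation. Luminescence tracked at 0, 8, 16, 24, 32 and 40 h of exposure.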

[7] = A CellTox Green Cytotoxicity Assay to monitor cytotoxicity in HEK293 cells - 0 hour (AID 1224869); further: potency means the concentration at half of the fitted maximal effect; nearly all actives have a fitted effect of over 50% in size
Procedure, shortened: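 Homogeneous no-lysis format: HEK293 cell suspension mixed with CellTox Green reagent, seeded, incubated 5 h at 37 C/5% CO2, then dosed by pintool with compound in DMSO.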

[8] = qHTS assay to identify small molecule agonists of the TGF-beta/Smad signaling pathway - cell viability counter screen (AID 1346829); further: top concentration of the series differs between compounds; on the % scale 0 is the no-effect control and ±100 the full control effect; nearly all actives have a fitted effect of over 45% in size
Procedure, shortened: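 CellTiter-Glo luminescence readout; SBE-bla HEK 293T cells, overnight plating, compound 5 hr at 37 C/5% CO2, then bla substrate 2 hr RT, then CellTiter-Glo 30 min RT.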

[9] = qHTS RealTime-Glo MT Cell Viability Assay in HepG2 cells - 24 hour (AID 1224867); further: on the % scale 0 is the no-effect control and ±100 the full control effect; nearly all actives have a fitted effect of over 50% in size
Procedure, shortened: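 HepG2 cells were seeded at 600 cells/well together with NanoLuc luciferase and a cell-permeant prosubstrate, preincubated 5 h at 37 C/5% CO2, then pin-dosed with compounds in DMSO. Nonlytic luminescence from viable cells was read at each time point.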

[10] = qHTS assay to identify small molecule that activate the aryl hydrocarbon receptor (AhR) signaling pathway - cell viability counter screen (AID 743086);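 further: HepG2 liver cells carrying the AhR DRE luciferase reporter; on the % scale 0 is the no-effect control and ±100 the full control effect; nearly all actives have a fitted effect of over 45% in size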
Procedure, shortened: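 Cytotoxicity counter screen: CellTiter-Fluor signal (30 min, 37 C) in 4000 HepG2 cells/well carrying the DRE-luciferase reporter, following 24 h compound exposure at 37 C.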

[11] = molecular target: Acetylcholinesterase (Homo sapiens) (UniProt P22303); test: Acetylcholinesterase (AChE) small molecule antagonists: enzyme-based qHTS assay (AID 1347397; calls by dose curve; further: nearly all actives have a fitted effect of over 55% in size; further: potency means the concentration at half of the fitted maximal effect); conditions: Potency: AChE enzyme activity inhibition; outcome: AChE enzyme activity inhibition
Procedure, shortened: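 First, recombinant human AChE (50 mU/mL as dispensed) received test compound or DMSO. Second, plates stood 30 min at room temperature. Third, DTNB and acetylthiocholine were added, followed by 10 min at room temperature and colorimetric detection.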

[12] = molecular target: Estrogen receptor (Homo sapiens) (UniProt P03372); test: qHTS assay to identify small molecule antagonists of the estrogen receptor alpha (ER-alpha) signaling pathway using the BG1 cell line in the presence of 0.1 nM 17-beta-estradiol (AID 1259244)
Procedure, shortened: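 Seeding of stripped-serum-adapted VM7Luc4E2 cells, 24 h attachment, compound transfer, then 0.1 nM final 17beta-estradiol; after 22 h incubation, ONE-Glo reagent and luminescence reading.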

[13] = molecular target: Androgen receptor (Homo sapiens) (UniProt P10275); test: qHTS assay to identify small molecule antagonists of the androgen receptor (AR) signaling pathway using the MDA cell line in the presence of 0.5 nM R1881 (AID 1259243)
Procedure, shortened: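 Cells: MDA-kb2 (MMTV-luc). Stimulus: 0.5 nM R1881. Time: 16 hr, 37C, no CO2. Detection: ONE-Glo luminescence after 30 min at RT.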

[14] = qHTS assay for small molecule disruptors of the mitochondrial membrane potential - cell viability (AID 720634; calls by dose curve; further: nearly all actives have a fitted effect of over 20% in size; further: potency means the concentration at half of the fitted maximal effect)
Procedure, shortened: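 Same-well counter-screen: following the MMP dye addition, CellTiter-Glo was added to 1 hr compound-treated HepG2 cells and luminescence read after 30 min at room temperature.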

[15] = molecular target: Bile acid receptor (Homo sapiens) (UniProt Q96RI1); test: qHTS assay to identify small molecule antagonists of the farnesoid-X-receptor (FXR) signaling pathway (AID 743217; active means well fitted inhibition curve with a large enough effect in the signal ratio in the repeat runs, not every such curve was filed as active; inconclusive means weak or mixed curves, or effect the other way; inactive means no such curve, though single readings can be large or run the other way; the % refers to the signal ratio; further: on the % scale 0 is the no-effect control and ±100 the full control effect); conditions: HEK293T FXR-UAS-bla, beta-lactamase ratio, CDCA-stimulated, 16 h; activity change, negative = inhibition: at 62.6 µM (top of the series) unless noted
Procedure, shortened: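 FRET fluorescence after 2 h room-temperature LiveBLAzer loading gives the readout. Prior step: FXR-bla HEK 293T cells, seeded and incubated 5 h, received test compounds plus 50 uM final CDCA for 16 h at 37 °C.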

[16] = qHTS assay to identify small molecule antagonists of the androgen receptor (AR) signaling pathway using the MDA cell line - cell viability counter screen (AID 743041; further: nearly all actives have a fitted effect of over 45% in size; further: potency means the concentration at half of the fitted maximal effect); conditions: MDA-kb2 viability, CellTiter-Fluor, 16 h, cells co-treated with R1881 androgen agonist; viability change, negative = cytotoxic: at 70.3 µM (top of the series)
Procedure, shortened: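 Using the breast carcinoma line MDA-kb2 AR-luc, test chemicals were co-incubated with R1881 for 16 h; CellTiter-Fluor reagent, added at 15.5 h, provided a fluorescence measure of live cells.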

[17] = qHTS assay to identify small molecule HDAC inhibitors (AID 1259364); further: potency means the concentration at half of the fitted maximal effect; on activity change, negative = inhibition: top concentration of the series differs between compounds; on the % scale 0 is the no-effect control and ±100 the full control effect
Procedure, shortened: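 After a 2 hr compound incubation (37C, 5% CO2), HCT-116 cells seeded at 1,500/well the day before received HDAC-Glo reagent; signal read as luminescence after 30 min at room temperature.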

[18] = qHTS assay to identify small molecule phospholipidosis (PLD) inducers (AID 1259344; active means well fitted curve in the direction sought with a large enough effect; inconclusive means small, poorly fitted or top-dose-only effect, or another doubt; inactive means no such curve, though single readings can be large; an effect the other way counts as inactive or inconclusive; further: potency means the concentration at half of the fitted maximal effect)
Procedure, shortened: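 Accumulated phospholipid, stained red by LipidTOX during 24 h compound treatment of HepG2 cells at 37 C, is quantified from images as pit number and intensity, normalised per cell using Hoechst-stained nuclei.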

[19] = qHTS assay to identify small molecule agonists of the constitutive androstane receptor (CAR) signaling pathway - cell viability counter screen (AID 1224836)
Procedure, shortened: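 Cells were seeded and incubated 4 hrs. Compounds were added across 15 concentrations together with PK11195 at 0.75 uM final. Plates were incubated 23 hrs at 37 C. CellTiter-Fluor was added and fluorescence measured.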

[20] = molecular target: Nuclear receptor subfamily 1 group I member 3 (Homo sapiens) (UniProt Q14994); test: qHTS assay to identify small molecule agonists of the constitutive androstane receptor (CAR) signaling pathway (AID 1224839); further: potency means the concentration at half of the fitted maximal effect; nearly all actives have a fitted effect of over 15% in size
Procedure, shortened: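 Cells were plated and incubated 4 hrs, then dosed with compounds at 15 concentrations. PK11195 was added to 0.75 uM final. After 24 hrs at 37 C, luciferase luminescence was measured.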
Tags describe the fitted curve by direction and shape.

Chain of UniProt P11511 (P11511 whole entry, looked up): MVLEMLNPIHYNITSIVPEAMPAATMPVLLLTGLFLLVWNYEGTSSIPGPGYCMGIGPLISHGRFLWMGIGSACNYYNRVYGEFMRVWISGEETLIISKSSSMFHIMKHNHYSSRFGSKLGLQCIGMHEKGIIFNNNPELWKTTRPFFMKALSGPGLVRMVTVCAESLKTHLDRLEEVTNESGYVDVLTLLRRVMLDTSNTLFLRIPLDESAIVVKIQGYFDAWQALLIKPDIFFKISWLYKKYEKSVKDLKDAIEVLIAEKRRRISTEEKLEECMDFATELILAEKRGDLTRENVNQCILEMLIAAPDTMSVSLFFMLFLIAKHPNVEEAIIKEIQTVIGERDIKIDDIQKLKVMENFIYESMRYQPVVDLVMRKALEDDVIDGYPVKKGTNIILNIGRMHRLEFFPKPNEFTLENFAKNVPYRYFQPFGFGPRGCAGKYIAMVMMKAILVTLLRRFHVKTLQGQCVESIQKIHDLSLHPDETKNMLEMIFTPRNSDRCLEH
Chain of UniProt P03372 (P03372 whole entry, looked up): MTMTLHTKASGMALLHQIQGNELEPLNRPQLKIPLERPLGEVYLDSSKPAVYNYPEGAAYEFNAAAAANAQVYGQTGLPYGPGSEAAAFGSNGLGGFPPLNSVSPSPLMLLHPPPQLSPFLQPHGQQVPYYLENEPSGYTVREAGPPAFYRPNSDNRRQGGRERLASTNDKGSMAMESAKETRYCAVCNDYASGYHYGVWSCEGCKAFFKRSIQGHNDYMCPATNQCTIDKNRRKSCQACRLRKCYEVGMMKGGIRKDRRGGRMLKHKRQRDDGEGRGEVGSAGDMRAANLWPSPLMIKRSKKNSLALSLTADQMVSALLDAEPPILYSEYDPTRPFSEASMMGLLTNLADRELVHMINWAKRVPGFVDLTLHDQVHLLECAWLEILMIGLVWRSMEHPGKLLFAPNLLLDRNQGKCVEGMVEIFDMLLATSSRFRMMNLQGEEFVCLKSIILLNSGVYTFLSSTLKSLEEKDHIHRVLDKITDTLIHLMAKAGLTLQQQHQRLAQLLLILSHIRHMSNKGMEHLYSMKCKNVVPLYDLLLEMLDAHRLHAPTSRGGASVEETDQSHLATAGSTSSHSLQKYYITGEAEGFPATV
Chain of UniProt Q96RI1 (Q96RI1 whole entry, looked up): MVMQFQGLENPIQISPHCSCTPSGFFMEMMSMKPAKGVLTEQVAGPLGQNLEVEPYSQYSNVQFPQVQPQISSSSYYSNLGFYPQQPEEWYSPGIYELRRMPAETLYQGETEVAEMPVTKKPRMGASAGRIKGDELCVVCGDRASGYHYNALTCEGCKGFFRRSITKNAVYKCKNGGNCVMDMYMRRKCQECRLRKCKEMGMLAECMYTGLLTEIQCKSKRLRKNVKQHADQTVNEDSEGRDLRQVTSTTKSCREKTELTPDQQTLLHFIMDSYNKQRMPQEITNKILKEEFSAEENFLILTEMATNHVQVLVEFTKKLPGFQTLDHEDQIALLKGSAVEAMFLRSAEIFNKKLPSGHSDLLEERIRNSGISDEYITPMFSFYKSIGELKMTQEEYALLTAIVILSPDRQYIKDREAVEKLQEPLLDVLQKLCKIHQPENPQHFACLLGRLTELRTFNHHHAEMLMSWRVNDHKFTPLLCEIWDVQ
Chain of UniProt P22303 (P22303 whole entry, looked up): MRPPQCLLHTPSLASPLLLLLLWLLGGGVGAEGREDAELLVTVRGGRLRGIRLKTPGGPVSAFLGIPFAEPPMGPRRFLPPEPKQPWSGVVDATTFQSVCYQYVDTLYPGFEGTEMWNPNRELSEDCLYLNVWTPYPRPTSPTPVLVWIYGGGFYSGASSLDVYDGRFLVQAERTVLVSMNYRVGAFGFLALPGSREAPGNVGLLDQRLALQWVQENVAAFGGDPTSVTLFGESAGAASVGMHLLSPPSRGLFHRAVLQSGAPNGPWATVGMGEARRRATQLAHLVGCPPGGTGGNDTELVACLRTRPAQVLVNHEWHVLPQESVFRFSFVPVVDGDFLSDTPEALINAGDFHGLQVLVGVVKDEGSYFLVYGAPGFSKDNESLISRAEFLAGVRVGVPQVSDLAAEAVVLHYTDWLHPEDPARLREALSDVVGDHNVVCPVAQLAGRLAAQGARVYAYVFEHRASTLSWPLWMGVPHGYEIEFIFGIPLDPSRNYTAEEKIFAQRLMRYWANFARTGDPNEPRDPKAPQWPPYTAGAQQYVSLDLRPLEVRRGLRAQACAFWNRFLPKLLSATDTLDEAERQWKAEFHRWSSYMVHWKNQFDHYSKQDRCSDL
Chain of UniProt Q14994 (Q14994 whole entry, looked up): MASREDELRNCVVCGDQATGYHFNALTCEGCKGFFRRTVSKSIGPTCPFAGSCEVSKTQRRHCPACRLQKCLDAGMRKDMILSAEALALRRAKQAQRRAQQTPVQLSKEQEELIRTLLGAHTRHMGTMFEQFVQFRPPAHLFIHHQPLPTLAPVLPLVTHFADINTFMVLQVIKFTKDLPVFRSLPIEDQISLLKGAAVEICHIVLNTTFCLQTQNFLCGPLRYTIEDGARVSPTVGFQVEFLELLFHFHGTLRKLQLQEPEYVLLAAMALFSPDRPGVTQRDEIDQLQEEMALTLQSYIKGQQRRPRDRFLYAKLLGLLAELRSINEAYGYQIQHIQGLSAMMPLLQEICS
Chain of UniProt P10275 (P10275 whole entry, looked up): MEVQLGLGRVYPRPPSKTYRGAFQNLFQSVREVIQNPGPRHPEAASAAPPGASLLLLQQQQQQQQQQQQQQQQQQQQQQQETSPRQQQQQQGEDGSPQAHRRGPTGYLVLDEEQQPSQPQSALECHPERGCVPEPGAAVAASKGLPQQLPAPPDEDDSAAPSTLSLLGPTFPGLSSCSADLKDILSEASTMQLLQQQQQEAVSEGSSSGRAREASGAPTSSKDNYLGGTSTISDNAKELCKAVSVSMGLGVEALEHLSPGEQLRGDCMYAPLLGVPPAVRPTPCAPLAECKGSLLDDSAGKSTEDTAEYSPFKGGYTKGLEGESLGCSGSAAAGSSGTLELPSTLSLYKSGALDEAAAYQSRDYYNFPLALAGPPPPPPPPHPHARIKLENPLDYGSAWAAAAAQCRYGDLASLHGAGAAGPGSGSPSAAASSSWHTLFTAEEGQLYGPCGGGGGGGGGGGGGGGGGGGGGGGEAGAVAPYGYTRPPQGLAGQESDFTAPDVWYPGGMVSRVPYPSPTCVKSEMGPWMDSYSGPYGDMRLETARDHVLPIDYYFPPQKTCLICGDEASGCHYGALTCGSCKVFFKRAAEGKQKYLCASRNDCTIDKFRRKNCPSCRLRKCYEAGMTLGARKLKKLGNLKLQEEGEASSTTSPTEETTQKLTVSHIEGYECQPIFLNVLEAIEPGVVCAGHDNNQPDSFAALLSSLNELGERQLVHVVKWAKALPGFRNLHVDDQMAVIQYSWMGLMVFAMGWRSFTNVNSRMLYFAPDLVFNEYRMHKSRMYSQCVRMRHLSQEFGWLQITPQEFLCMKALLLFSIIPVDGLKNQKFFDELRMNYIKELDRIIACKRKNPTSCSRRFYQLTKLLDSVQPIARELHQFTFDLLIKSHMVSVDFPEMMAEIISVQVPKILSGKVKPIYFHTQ

COc1nc(NC(C)C)nc(NC(C)C)n1
Potency [1]: inactive | Potency [2]: inactive

CCOP(=O)(OCC)OCC
Potency [3]: inconclusive [activator, partial curve, poor fit] | cAMP activity change [4]: inactive: 4.85% and inactive: 0.621%

CCC(=O)c1ccc(Cl)cc1
Potency [5]: inconclusive [falling, single point]

Cc1cccc(C#N)c1
Potency [1]: inactive

CSC(C)(C)/C=N/O
Potency [1]: inactive

CCCC[n+]1ccccc1C
Potency [6]: inconclusive [falling, single point]

CC(C)Nc1nc(Cl)nc(NC(C)C)n1
Potency [3]: inactive | Potency [6]: inactive

ClC1=C(Cl)[C@]2(Cl)[C@@H]3[C@@H](Cl)[C@H](Cl)C[C@@H]3[C@@]1(Cl)C2(Cl)Cl
Potency [7]: inconclusive [activator, single point]

CCCCCCCCCCCC#N
Potency [7]: active: 45.2 µM

C=C(C)CN(CC)c1c([N+](=O)[O-])cc(C(F)(F)F)cc1[N+](=O)[O-]
Potency [8]: inactive

CCOP(=O)(OCC)OP(=O)(OCC)OCC
Potency [9]: inactive

Clc1cnc(Oc2ccc(Oc3ncc(Cl)cc3Cl)cc2)c(Cl)c1
Potency [4]: inconclusive [partial curve, poor fit]

CCCC[N+](CCCC)(CCCC)CCCC
Potency [10]: inactive

CC(=O)CC(c1ccc(Cl)cc1)c1c(O)c2ccccc2oc1=O (centres undefined)
cAMP activity change [4]: inconclusive: -0.589%

CNC(=O)/C=C(\C)OP(=O)(OC)OC
Potency [11]: inconclusive [falling, partial curve]

CN(C)c1nc(=O)n(C2CCCCC2)c(=O)n1C
Potency [6]: inactive

CCC1(c2ccccc2)C(=O)NC(=O)NC1=O
Potency [5]: inactive | Potency [12]: inactive

C[N+](C)(C)CC(=O)[O-]
Potency [8]: inactive

COC(=O)C1(O)c2ccccc2-c2ccccc21
Potency [13]: inconclusive [inhibitor, partial curve]

Cc1ccc([N+](=O)[O-])cc1C
Potency [14]: inconclusive [cytotoxic, partial curve] | Potency [15]: inactive

O=C1NC(=O)C(=O)C(=O)N1
Potency [12]: inactive

CC12CC1(C)C(=O)N(c1cc(Cl)cc(Cl)c1)C2=O (centres undefined)
Potency [16]: inconclusive [rising, partial curve]

O=C1CC[C@@]2(O)[C@H]3Cc4ccc(O)c5c4[C@@]2(CCN3CC2CC2)[C@H]1O5
Potency [14]: inactive

Nc1cnn(-c2ccccc2)c(=O)c1Cl
Potency [17]: inactive

CCN[C@@H](C)Cc1cccc(C(F)(F)F)c1
Potency [18]: inconclusive [activator, single point]

CC(C)(C)NCC(O)c1cc(Cl)c(N)c(Cl)c1 (centres undefined)
Potency [19]: inconclusive [cytotoxic, full curve, poor fit] | Potency [4]: inconclusive

CC(Cl)(Cl)Cl
Potency [14]: inactive

O=C(c1ccc(Cl)cc1)c1ccc(Cl)cc1
Potency [11]: inactive

O=C(Oc1ccc(Br)cc1)N1CCN2CCC1CC2
Potency [16]: inactive | Potency [8]: inactive

CON(C)C(=O)Nc1ccc(Br)cc1
Potency [20]: inconclusive [activator, partial curve] | Potency [17]: active: 24.3 µM

COC(=O)[C@@H](N)CCCN/C(N)=N/[N+](=O)[O-]
Potency [18]: inactive
